# From the supplement of paper PMC11417369
# ± gives the standard deviation of the averaged measurements. The list shows a part of the results.
# Test system: PfAP2-LT AP2 domain (GST-tagged)
# Test: gcPBM binding intensity (ln(normalized median fluorescence intensity)); higher = stronger DNA binding
# Procedure, shortened: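 Probes on an Agilent 4 × 180k array were primer-extended, double-stranded and 36 bp long, taken from intergenic genomic regions, with negative controls added. GST-tagged P. falciparum DNA-binding domains from E. coli, about 25 μg on average, were applied to the array for 1 h in 1× PBS containing 1% milk, 0.2 mg/ml BSA, 0.5% salmon testes DNA and 0.03% Triton X-100. Binding intensity, obtained after Alexa488 anti-GST antibody detection and a 488 nm scan, is the highest Masliner-normalised natural-log median intensity across replicate spots of either probe orientation.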
row,Sequence,gcPBM binding intensity (ln)
1,ATATAATATCTGTATACACACATATTATATAATATT [CACACA_site5940],9.09 ± 0.33
2,CACATTTCTGTAGTTGCATGTAGAAAAAAAAAAAAA [TGCATGCA_site810],8.51 ± 0.44
3,AATACAATTGAAAATTGTACTTTGTTTTTTATAAAT [XGTACX_site4080],8.42 ± 0.4
4,TTTTGAGAAAAAATAAAATAATAAATAAAAATACAT [XGTACX_negctrl_site66],8.52 ± 0.48
5,CATATAATAAATAATACACACATATTGGAAATATAT [CACACA_site3212],9.08 ± 0.38
6,TTTATTTATTTATATTTTTTTATATAATTTATATAT [GTGCAC_negctrl_site301],8.54 ± 0.46
7,AAAGGTATATATGTGTGTACATATATATATATATAT [XGTACX_site5629],9.955 ± 0.0071
8,AAAAATAAAAAAAAATTAAAATATATATATTTTGTT [TGCATGCA_negctrl_site102],8.45 ± 0.44
9,AACATATTTATATACACACACATATTTATATGAAAT [CACACA_site6268],9.32 ± 0.34
10,GAGAGGATACATACATGTACATAAATATTTTATTTT [XGTACX_site5129],8.86 ± 0.46
11,AGGAAAAAAAGTAGCACACAAATATTTATAATATAT [CACACA_site2437],9.11 ± 0.57
12,CGTAGCCGCACTAACACACACAAATATACGCAATCA [CACACA_site2898],9.39 ± 0.43
13,AAAAAAAAAAAAAATAATAAATAAATAAATAAATAA [GTGCAC_negctrl_site505],8.29 ± 0.71
14,ATATTTTGGGTGTTGTTTTTTTTTAAAACTCTTTAA [CACACA_negctrl_site1255],8.67 ± 0.42
15,TTACTATTTCACTGTGCATGCAACAAAAATCTATCT [TGCATGCA_site808],8.9 ± 0.26
16,ATTAGTTTATATGAATGATTTTTCTTTTTTTTTTTT [CACACA_negctrl_site88],8.47 ± 0.57
17,TTATTTTATCACACATGTACATATGTTAATTTTTTT [XGTACX_site5598],8.91 ± 0.49
18,AAATTTATATATAGTTGTACAAAAATATGTTTCGTA [XGTACX_site4801],8.8 ± 0.54
19,AAAATAAAAAGAAATAAATTAACAGTAAGGAAAAAA [CACACA_negctrl_site1105],8.69 ± 0.57
20,TGAATAATCAATAGTACACACATATAAATATATATA [CACACA_site2813],9.05 ± 0.35
21,AAGAAAAGTAAATATGCATGTAGGGTAGGTTATTTT [TGCATGCA_site46],8.93 ± 0.54
22,CCTTTTTCTAATGGATGTACTTATTATATACATTAT [XGTACX_site281],8.88 ± 0.44
23,ATATTTTTTCTGAACGGTACAGAATTTTTCAAGATT [XGTACX_site484],8.72 ± 0.44
24,TATATATATCTGTATACACACATATGTATGTTATGT [CACACA_site6090],9.48 ± 0.44
